Over roughly 4,500 sequences, “median log2 fold change of GCK-ALFA target abundance (FLAG IP / Myc IP barcode read proportion)” has its median near 0.078; the lowest 2% begin near -0.6. The list shows a part of the results.
B1: GBRAP_11_2784 (protein)
chain: EKEKLEKIAEIAEKLAETLEKLLEEGVDNEELIKKAEELLKELKELVKEHPNKSLQKLAEIAEELWKEFLEDKENAEEYAKQLLAAVRVLHGQVLLELEE
B2: GBRAP_128_3312 (protein)
chain: IDEEIIKKAKELIEKLVKATVEEAAKLTEEIIELMGKASEEERDIIVELFEEGLKKLTAEKLEVVADVLRKQQPKLDPYGANLAAELEVEALNLAEEKEE
B3: GBRAP_139_3727 (protein)
chain: SAEEEAVKKVVELAKKSVEEGNALVGEVADLLNSMSLETAEKALEAIAKEMEEFSFEEVEKFFDELEKEILEKHKNEDLAELVEAARNRALARVAVREEE
B4: GBRAP_35_5622 (protein)
chain: DTDEEIAEATVAVLEDTLAAAGEVPAETFLATALKVAKAGLEVAKELKDNKELAKKILDAAKKLLKTALELAKKTGAPEEVIKELEKLLKEAEKLEKELK
B5: GBRAP_159_3960 (protein)
chain: MEERKEALRADLKALGASEELIEAAVEALELAEEGEDWASVAAHLLHMVTVLGATPEQVLVVLRHLPPELARRVAELLAEWAREQGREELAAALEELLAA
B6: GBRAP_128_3478 (protein)
chain: SVEEVVAKTKELMEKIKNSSLEEVKKLSEELVDLLGSANPEAREAATEVIIEQLPKLSVEKLEVLADVLREKRPELDPLAATQANEIAIEALELAEEKEE
B7: GBRAP_52_6378 (protein)
chain: MVEEAKKLLREAIKLIMEGGEEEEIRKIAKEILKYSEEVIEEAAERLAEELKGLSPEEAEKALEATLKLGDILIEEGLPEEVASLIEAEIGKAAYEVLQR
B8: GBRAP_128_3596 (protein)
chain: STAAVRAWTAATLDAMKTADAAERRALAEELMARFGELSLEEREAMAATIKERAPELSAEDLEILADAARAARPRLDPEGANLLADVEVELLNEAEEQEE
B9: GBRAP_52_6248 (protein)
chain: MSEERRAAAKEILELVLAGDYEGARALAREIARTWNEEELEAFIDEFAELVKTLPKENLEKAWKAAEIIAEVLEEEGKSEELVDLLEAKTAAALVEVEKK
B10: GBRAP_139_3699 (protein)
chain: SELEEKLERARELTRKMEENPEESIKEIVELLKSSSLEDAEKLVREIAEELSKLPLDKAEEYADLILERIEEEIEDEDKVDLAEAILNGALARKAYEEEL
B11: GBRAP_150_3902 (protein)
chain: DLEELLTLVSTAIDILEAILDGHLDLLPHAVKVMKAALEEAKEISPEVKKLAEEALKKVEEALKLKEEGGPEEEIKKAVQEALELAEKLEELVEKLIEEE
B12: GBRAP_78_6695 (protein)
chain: EVEEHLEKALEELGEAATLLAKMGTEEALDILGIVIDVAAEVEEALFGKPDLEELKKALKETEKALKEVEKIDSEEAKEAAEKLKKAIEHLKKAIKELEA
B13: GBRAP_137_3678 (protein)
chain: AKATVKVKEEDDLVVITVTYDDPEKAEEVEEELLDIADEVGALAVSVERDEDGNLVVEIVVPKEKAEELLKKVLEFLKKHADVKLITEKDGEVKEEEFKK
B14: GBRAP_160_4278 (protein)
chain: SEEMKKLAEELEEDKEEILELVDELSPEEVRNDAVVELGSHLLEAIELELITDEEEEELAEIVDKLDEDLKAAENASPEEIRAIIEEHFEKAKEILLKSK
B15: GBRAP_83_6971 (protein)
chain: AEKIVVATTPDHIDSAIEAAKDLATEEGYEVTVAIIGKPEEALEAAKKAAEALKDIKNVSIEVIVENVREEEAEKLKKEVEEIGKKYGLKVEFRAELLPP
B16: GBRAP_78_6627 (protein)
chain: EVEELLEKALEKVEEAAKLATKIPSEKAIDILDELIDAFEYLEEAIEEGGDLEKIEKALKELKKALELIKEQNDPKLEPLKKEVEEAIKLLEKAKKKIKE
B17: GBRAP_43_5767 (protein)
chain: SKELVEGAFETAILLLEDPSISEETKVKAIIAAMELAADEGYVDKELLEKVVELAGKTLSKESLEKILKAAKKLAKEYPESKEAFEEAAKKLEEAIAKKE
B18: GBRAP_52_6254 (protein)
chain: MRARLRADAREIVALVAAGREEEARALARDIAENYNEEELRLFVDEMAALAREARPEELDTVWRAAELMAEELEAAGKPEILVDDLLARVAAAAVEVLAR
B19: GBRAP_139_3686 (protein)
chain: SALDEVVKKAKELTKKAVEEGEEYVKKLVEFLATLSEEEFEAAAKAVAETLQEYDLETAERLADLIEEEAEKILKDEDKRDIVEAELNRALALRAVREEE

These binders were tested against GABARAP, O95166 (assay: median log2 fold change of GCK-ALFA target abundance (FLAG IP / Myc IP barcode read proportion) (log2 ratio); each designed protein is fused to an ALFA-tag nanobody in HEK293 cells to bring the named protein to FLAG-tagged glucokinase (GCK); Myc marks an untargeted standard; higher = target protein stabilised (more abundant)). Details: target protein: 3xFLAG-MCP-GCK-ALFA reporter; HEK293 landing pad (RPLP).
In short: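 HEK293 landing-pad cells received a recombined binder library fused to the ALFA nanobody and were induced with 2 μg mL^−1 doxycycline, then transfected with a plasmid encoding a FLAG-tagged target and a Myc-tagged standard. Lysates were collected after 48 h for anti-FLAG and anti-Myc immunoprecipitation, and the circular RNA barcodes were reverse transcribed, amplified and sequenced. Target abundance for each binder is the median log2 ratio of FLAG to Myc barcode read proportions. Barcodes had to reach a proportion of at least 10^−7 in both replicates, each binder needed at least 3 barcodes per replicate, a pseudocount of 10^−6 was applied, and the two replicates were pooled.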

Chain of GABARAP, O95166 (O95166 whole entry, the tested form may be a part): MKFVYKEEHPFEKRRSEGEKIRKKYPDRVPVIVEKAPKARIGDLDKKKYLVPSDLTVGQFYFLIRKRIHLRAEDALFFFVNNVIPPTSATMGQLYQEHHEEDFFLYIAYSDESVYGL

Point of comparison: B6, “median log2 fold change” value 0.196. Against it:
- B1 — within 0.2 log units, 0.137
- B2 — within 0.2 log units, 0.219
- B3 — within 0.2 log units, 0.17
- B4 — lower, -0.368
- B5 — within 0.2 log units, 0.154
- B7 — within 0.2 log units, 0.0773
- B8 — within 0.2 log units, 0.236
- B9 — within 0.2 log units, 0.0309
- B10 — within 0.2 log units, 0.177
- B11 — within 0.2 log units, 0.127
- B12 — within 0.2 log units, 0.172
- B13 — within 0.2 log units, 0.322
- B14 — lower, -0.312
- B15 — within 0.2 log units, 0.238
- B16 — lower, -0.061
- B17 — within 0.2 log units, 0.243
- B18 — lower, -0.285
- B19 — within 0.2 log units, 0.209

— the supplement of paper PMC12632987
